Test system: male Sprague-Dawley rats
Assay: Rat Tolerance/Dependence Study (28 day)

SMILES	tolerance (0.3 and 3 mg/kg four times, subcutaneous dosing for 28 days)	physical dependence upon cessation of dosing (0.3 and 3 mg/kg s.c., 28 days)	predominant behavioral effects during the on-dose phase (morphine 30 mg/kg orally twice per day)	new behavioral and physical signs during the withdrawal phase (morphine 30 mg/kg orally twice per day, withdrawn Day 28)	tolerance and dependence (repeated morphine 30 mg/kg orally twice per day)
O=C1CN2c3c(cccc3[C@@H]3CN(CCCOc4ccc(F)cc4)CC[C@@H]32)N1 [Example 2, (6bR,10aS)-8-(3-(4-fluorophenoxy)propyl)-6b,7,8,9,10,10a-hexahydro-1H-pyrido[3′,4′:4,5]pyrrolo[1,2,3-de]quinoxalin-2(3H)-one]	does not produce tolerance	not to produce a syndrome of physical dependence	–	–	–
CN1CC[C@]23c4c5ccc(O)c4O[C@H]2[C@@H](O)C=C[C@H]3[C@H]1C5 [Morphine, morphine, reference compound]	–	–	Straub tail, jumping, digging, increased body tone, increased locomotor activity, explosive movements and exopthalmus	piloerection, ataxia/rolling gait, wet dog shakes and pinched abdomen	clear signs of tolerance and dependence
